Molecular target: MarR (i.e., MBP-MarR144) to marO (Escherichia coli, UniProt P27245)
Type: binding

Sequence of MarR (i.e., MBP-MarR144) to marO (P27245 whole entry): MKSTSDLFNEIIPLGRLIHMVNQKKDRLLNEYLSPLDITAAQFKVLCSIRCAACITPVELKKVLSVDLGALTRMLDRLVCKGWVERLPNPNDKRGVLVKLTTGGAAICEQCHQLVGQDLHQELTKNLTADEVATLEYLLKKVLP

O=[N+]([O-])c1ccc(O)c([N+](=O)[O-])c1 [DNP]
reversal of the binding of MarR (MBP-MarR144) to marO: caused reversal of the binding

From patent US6391545B1 (priority 1992, dated 2002)
